# Results are given in words; binding and its absence hold for the method and conditions named. Some entries that bind do so weakly or less than the wild type. For part of these data: Tags and fused reporters may be left off the sequences shown.
# T1: GFP-LacI-dCENP-C (Drosophila melanogaster), Q9VHP9
# T1 chain: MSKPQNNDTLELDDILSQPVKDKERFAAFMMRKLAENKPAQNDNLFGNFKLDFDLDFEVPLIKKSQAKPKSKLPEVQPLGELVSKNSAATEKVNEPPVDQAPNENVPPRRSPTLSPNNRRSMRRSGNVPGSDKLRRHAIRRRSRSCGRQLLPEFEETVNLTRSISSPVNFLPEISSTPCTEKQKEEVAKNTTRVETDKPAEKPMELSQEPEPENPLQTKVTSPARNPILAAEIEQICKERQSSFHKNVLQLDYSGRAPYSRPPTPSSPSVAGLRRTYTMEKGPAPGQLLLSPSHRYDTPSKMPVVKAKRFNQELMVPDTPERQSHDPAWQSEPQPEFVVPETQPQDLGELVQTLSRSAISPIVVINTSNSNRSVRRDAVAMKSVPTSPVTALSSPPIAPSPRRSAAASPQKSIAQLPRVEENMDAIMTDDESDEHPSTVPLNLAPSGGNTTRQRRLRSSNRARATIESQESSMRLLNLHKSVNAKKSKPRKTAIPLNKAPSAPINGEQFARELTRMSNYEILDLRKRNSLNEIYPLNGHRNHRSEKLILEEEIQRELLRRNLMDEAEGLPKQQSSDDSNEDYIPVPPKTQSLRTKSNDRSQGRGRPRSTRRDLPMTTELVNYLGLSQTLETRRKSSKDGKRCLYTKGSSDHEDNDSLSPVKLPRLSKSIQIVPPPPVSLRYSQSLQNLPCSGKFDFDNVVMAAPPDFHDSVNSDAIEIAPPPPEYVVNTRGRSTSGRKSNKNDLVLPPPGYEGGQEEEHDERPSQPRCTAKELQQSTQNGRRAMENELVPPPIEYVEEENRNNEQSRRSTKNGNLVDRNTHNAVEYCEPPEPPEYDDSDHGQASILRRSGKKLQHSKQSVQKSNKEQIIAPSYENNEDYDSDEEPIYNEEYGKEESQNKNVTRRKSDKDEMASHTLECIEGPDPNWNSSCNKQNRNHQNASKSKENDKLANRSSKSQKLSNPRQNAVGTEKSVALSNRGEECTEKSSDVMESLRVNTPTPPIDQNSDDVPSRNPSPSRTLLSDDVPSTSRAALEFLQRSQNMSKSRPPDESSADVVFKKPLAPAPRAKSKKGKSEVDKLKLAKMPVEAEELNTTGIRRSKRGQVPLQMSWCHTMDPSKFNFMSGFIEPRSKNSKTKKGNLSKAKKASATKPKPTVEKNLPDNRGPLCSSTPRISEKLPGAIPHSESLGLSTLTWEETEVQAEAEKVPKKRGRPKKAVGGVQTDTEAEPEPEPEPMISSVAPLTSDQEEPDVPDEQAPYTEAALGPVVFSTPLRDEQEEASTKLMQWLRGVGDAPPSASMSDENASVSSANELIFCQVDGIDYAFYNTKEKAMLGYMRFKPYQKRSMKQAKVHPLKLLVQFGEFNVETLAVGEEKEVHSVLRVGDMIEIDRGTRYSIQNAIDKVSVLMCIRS
# T2: recombinant CAL1(1-160) (Drosophila melanogaster), Q9VEN2
# T2 chain: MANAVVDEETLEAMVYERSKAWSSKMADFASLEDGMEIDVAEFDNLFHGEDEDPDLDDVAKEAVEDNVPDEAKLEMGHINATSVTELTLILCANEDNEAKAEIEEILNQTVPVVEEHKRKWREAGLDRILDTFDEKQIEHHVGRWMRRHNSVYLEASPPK
# Key:
# [1] = target: N-terminally GFP-LacI-tagged CAL1 (Drosophila melanogaster) (UniProt Q9VEN2); test: LacI/LacO tethering and recruitment assay (immunofluorescence); bait fused to GFP-LacI tethered to chromosomal LacO arrays in human U2OS cells; HA- or V5-tagged prey transiently co-expressed; IF 48 h after transfection, prey intensity at the LacO spot or % of cells; no third Drosophila centromere protein co-expressed
# [2] = target: T1, GFP-LacI-dCENP-C (Drosophila …); test: as above; details: remark: other sources report otherwise
# [3] = target: T2, recombinant CAL1(1-160) (Drosophila …); test: SEC-MALS; recombinant proteins; Superdex 200 10/300 Increase GL, 50 mM HEPES pH 8.0, 150 or 300 mM NaCl, 1 mM TCEP, 22°C, 100 μl of 1-5 mg/ml; both purified; details: remark: other sources report otherwise
binder,measurement,setting,value
"HA-dCENP-C (protein, UniProt Q9VHP9 1-1411) MSKPQNNDTLELDDILSQPVKDKERFAAFMMRKLAENKPAQNDNLFGNFKLDFDLDFEVPLIKKSQAKPKSKLPEVQPLGELVSKNSAATEKVNEPPVDQAPNENVPPRRSPTLSPNNRRSMRRSGNVPGSDKLRRHAIRRRSRSCGRQLLPEFEETVNLTRSISSPVNFLPEISSTPCTEKQKEEVAKNTTRVETDKPAEKPMELSQEPEPENPLQTKVTSPARNPILAAEIEQICKERQSSFHKNVLQLDYSGRAPYSRPPTPSSPSVAGLRRTYTMEKGPAPGQLLLSPSHRYDTPSKMPVVKAKRFNQELMVPDTPERQSHDPAWQSEPQPEFVVPETQPQDLGELVQTLSRSAISPIVVINTSNSNRSVRRDAVAMKSVPTSPVTALSSPPIAPSPRRSAAASPQKSIAQLPRVEENMDAIMTDDESDEHPSTVPLNLAPSGGNTTRQRRLRSSNRARATIESQESSMRLLNLHKSVNAKKSKPRKTAIPLNKAPSAPINGEQFARELTRMSNYEILDLRKRNSLNEIYPLNGHRNHRSEKLILEEEIQRELLRRNLMDEAEGLPKQQSSDDSNEDYIPVPPKTQSLRTKSNDRSQGRGRPRSTRRDLPMTTELVNYLGLSQTLETRRKSSKDGKRCLYTKGSSDHEDNDSLSPVKLPRLSKSIQIVPPPPVSLRYSQSLQNLPCSGKFDFDNVVMAAPPDFHDSVNSDAIEIAPPPPEYVVNTRGRSTSGRKSNKNDLVLPPPGYEGGQEEEHDERPSQPRCTAKELQQSTQNGRRAMENELVPPPIEYVEEENRNNEQSRRSTKNGNLVDRNTHNAVEYCEPPEPPEYDDSDHGQASILRRSGKKLQHSKQSVQKSNKEQIIAPSYENNEDYDSDEEPIYNEEYGKEESQNKNVTRRKSDKDEMASHTLECIEGPDPNWNSSCNKQNRNHQNASKSKENDKLANRSSKSQKLSNPRQNAVGTEKSVALSNRGEECTEKSSDVMESLRVNTPTPPIDQNSDDVPSRNPSPSRTLLSDDVPSTSRAALEFLQRSQNMSKSRPPDESSADVVFKKPLAPAPRAKSKKGKSEVDKLKLAKMPVEAEELNTTGIRRSKRGQVPLQMSWCHTMDPSKFNFMSGFIEPRSKNSKTKKGNLSKAKKASATKPKPTVEKNLPDNRGPLCSSTPRISEKLPGAIPHSESLGLSTLTWEETEVQAEAEKVPKKRGRPKKAVGGVQTDTEAEPEPEPEPMISSVAPLTSDQEEPDVPDEQAPYTEAALGPVVFSTPLRDEQEEASTKLMQWLRGVGDAPPSASMSDENASVSSANELIFCQVDGIDYAFYNTKEKAMLGYMRFKPYQKRSMKQAKVHPLKLLVQFGEFNVETLAVGEEKEVHSVLRVGDMIEIDRGTRYSIQNAIDKVSVLMCIRS",binding,[1],binds
"HA-dCENP-C, Q9VHP9 1-1411 (natural protein) MSKPQNNDTLELDDILSQPVKDKERFAAFMMRKLAENKPAQNDNLFGNFKLDFDLDFEVPLIKKSQAKPKSKLPEVQPLGELVSKNSAATEKVNEPPVDQAPNENVPPRRSPTLSPNNRRSMRRSGNVPGSDKLRRHAIRRRSRSCGRQLLPEFEETVNLTRSISSPVNFLPEISSTPCTEKQKEEVAKNTTRVETDKPAEKPMELSQEPEPENPLQTKVTSPARNPILAAEIEQICKERQSSFHKNVLQLDYSGRAPYSRPPTPSSPSVAGLRRTYTMEKGPAPGQLLLSPSHRYDTPSKMPVVKAKRFNQELMVPDTPERQSHDPAWQSEPQPEFVVPETQPQDLGELVQTLSRSAISPIVVINTSNSNRSVRRDAVAMKSVPTSPVTALSSPPIAPSPRRSAAASPQKSIAQLPRVEENMDAIMTDDESDEHPSTVPLNLAPSGGNTTRQRRLRSSNRARATIESQESSMRLLNLHKSVNAKKSKPRKTAIPLNKAPSAPINGEQFARELTRMSNYEILDLRKRNSLNEIYPLNGHRNHRSEKLILEEEIQRELLRRNLMDEAEGLPKQQSSDDSNEDYIPVPPKTQSLRTKSNDRSQGRGRPRSTRRDLPMTTELVNYLGLSQTLETRRKSSKDGKRCLYTKGSSDHEDNDSLSPVKLPRLSKSIQIVPPPPVSLRYSQSLQNLPCSGKFDFDNVVMAAPPDFHDSVNSDAIEIAPPPPEYVVNTRGRSTSGRKSNKNDLVLPPPGYEGGQEEEHDERPSQPRCTAKELQQSTQNGRRAMENELVPPPIEYVEEENRNNEQSRRSTKNGNLVDRNTHNAVEYCEPPEPPEYDDSDHGQASILRRSGKKLQHSKQSVQKSNKEQIIAPSYENNEDYDSDEEPIYNEEYGKEESQNKNVTRRKSDKDEMASHTLECIEGPDPNWNSSCNKQNRNHQNASKSKENDKLANRSSKSQKLSNPRQNAVGTEKSVALSNRGEECTEKSSDVMESLRVNTPTPPIDQNSDDVPSRNPSPSRTLLSDDVPSTSRAALEFLQRSQNMSKSRPPDESSADVVFKKPLAPAPRAKSKKGKSEVDKLKLAKMPVEAEELNTTGIRRSKRGQVPLQMSWCHTMDPSKFNFMSGFIEPRSKNSKTKKGNLSKAKKASATKPKPTVEKNLPDNRGPLCSSTPRISEKLPGAIPHSESLGLSTLTWEETEVQAEAEKVPKKRGRPKKAVGGVQTDTEAEPEPEPEPMISSVAPLTSDQEEPDVPDEQAPYTEAALGPVVFSTPLRDEQEEASTKLMQWLRGVGDAPPSASMSDENASVSSANELIFCQVDGIDYAFYNTKEKAMLGYMRFKPYQKRSMKQAKVHPLKLLVQFGEFNVETLAVGEEKEVHSVLRVGDMIEIDRGTRYSIQNAIDKVSVLMCIRS",binding,[2],binds
"recombinant CAL1(1-160), Q9VEN2 1-160 (domain or fragment) MANAVVDEETLEAMVYERSKAWSSKMADFASLEDGMEIDVAEFDNLFHGEDEDPDLDDVAKEAVEDNVPDEAKLEMGHINATSVTELTLILCANEDNEAKAEIEEILNQTVPVVEEHKRKWREAGLDRILDTFDEKQIEHHVGRWMRRHNSVYLEASPPK",binding,[3],no binding

# — publication PMC6900781
